In PubChem BioAssay AID1030 (National Center for Advancing Translational Sciences (NCATS), 2008):
Among all 220,000 compounds or so, about 16,000 (7.3%) were called active. The inconclusive results got no clear call from the source; some entries with a clear call stand among them for comparison. Calls follow the shape of the dose curve; as a rule, active = well fitted inhibition curve with a large enough effect (not every such curve was filed as active); inconclusive = small, poorly fitted or top-dose-only effect, or another doubt; inactive = no such curve, though single readings can be large or run the other way. No potency is given beside an inconclusive call; the fits are too rough.

target: Aldehyde dehydrogenase 1A1 (Homo sapiens) (UniProt P00352); assay: qHTS Assay for Inhibitors of Aldehyde Dehydrogenase 1 (ALDH1A1); settings: Purified ALDH1A1, NADH fluorescence, propionaldehyde substrate; series mostly up to 75.3 µM; activity, negative = inhibition: at the top concentration;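 as to activity, negative = inhibition: plate controls were no enzyme wells and a reference inhibitor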
Potency is read from the fitted curve at half-maximal effect; tags tell the direction and shape of the fitted curve.

Chain of UniProt P00352 (P00352 whole entry, looked up): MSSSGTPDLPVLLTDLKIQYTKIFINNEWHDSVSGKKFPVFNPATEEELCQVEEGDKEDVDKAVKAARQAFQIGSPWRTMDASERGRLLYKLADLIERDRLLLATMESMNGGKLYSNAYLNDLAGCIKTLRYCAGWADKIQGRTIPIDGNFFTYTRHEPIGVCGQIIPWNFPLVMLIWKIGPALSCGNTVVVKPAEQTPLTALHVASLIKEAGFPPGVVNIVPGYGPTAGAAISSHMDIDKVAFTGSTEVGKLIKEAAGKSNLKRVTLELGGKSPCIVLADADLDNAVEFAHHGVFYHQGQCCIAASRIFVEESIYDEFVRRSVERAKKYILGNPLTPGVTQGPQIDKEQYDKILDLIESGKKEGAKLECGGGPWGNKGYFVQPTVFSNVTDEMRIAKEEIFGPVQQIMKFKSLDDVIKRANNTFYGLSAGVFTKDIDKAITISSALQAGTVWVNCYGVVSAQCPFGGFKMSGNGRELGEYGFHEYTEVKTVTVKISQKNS

Row | SMILES | Potency | activity, negative = inhibition
1 | CCC(C)N(C)C1CCN(C(=S)Nc2ccc(OC)cc2)CC1 (stereo not given) | inconclusive [inhibitor, single point] | –
2 | COc1cc(-c2nnc(-c3ccccc3)o2)cc(OC)c1OC | inconclusive [inhibitor, single point] | –
3 | O=[N+]([O-])c1ccc(N2CCN(C(=S)NC3CCCCC3)CC2)cc1 | active: 5.01 µM | –
4 | O=C(COC(=O)c1ccc(F)c(S(=O)(=O)N2CCCCC2)c1)NCc1ccc(F)cc1 | inconclusive [inhibitor, single point] | –
5 | COc1cc2c(N3CCOCC3)cc(O)c(CC(=O)Nc3ccccc3)c2cc1OC | inconclusive [inhibitor, partial curve] | –
6 | COCc1cc(C)nc(OC)c1C(N)=O | – | inactive: 0.568%
7 | Cc1ccc(S(=O)(=O)NCC(=O)OCc2nnc(-c3ccccc3)o2)cc1C | inconclusive [inhibitor, single point] | –
8 | CC1CCN(c2c(NCc3ccc(C(=O)N4CCN(C5CCCCC5)CC4)cc3)c(=O)c2=O)CC1 | – | inactive: 1.89%
9 | COC(=O)c1c(O)cc(C(C)(C)C)n(-c2ccc(F)cc2)c1=O | – | inactive: 7.42%
10 | Cc1ccc2cc(CN(Cc3ccc4c(c3)OCO4)Cc3nnnn3Cc3ccco3)c(=O)[nH]c2c1C | inconclusive [inhibitor, partial curve] | –
11 | Cc1nc(N2CCOCC2)c2c(C)c(C(=O)Nc3ccc(C(F)(F)F)cc3)sc2n1 | inconclusive [inhibitor, single point] | –
12 | CSc1ccc(/C=N/n2c(C)cc(C)cc2=O)cc1 | – | inactive: -9.77%
13 | COc1ccc2nc(-c3ccccc3)[nH]c2c1 | inconclusive [inhibitor, partial curve] | –
14 | Cc1cccnc1CN1CCN(Cc2nc(Cc3cccc(F)c3)no2)CC1 | – | inactive: -4.88%
15 | CCc1cc2ccccc2nc1SCC(=O)Nc1cc(OC)c(OC)cc1C(=O)O | inconclusive [inhibitor, single point] | –
16 | Cc1ccc(C(=O)OCC2OC3OC(C)(C)OC3C2O)cc1 (stereo not given) | – | inactive: -0.153%
17 | COCC(=O)N1CCC[C@@]2(CCN(c3ccccn3)C2)C1 | inconclusive [inhibitor, single point] | –
18 | Cc1[nH]c2ccccc2c1-c1csc(NC(=O)CN2CCOCC2)n1 | inconclusive [inhibitor, single point] | –
19 | Cn1cccc1C(=O)N1CCC2(CC1)CCN(c1ccncc1)CC2 | – | inactive: 7.18%
20 | O=C(NN1C(=O)C2C(C1=O)C1C=CC2C12CC2)c1ccncc1 (stereo not given) | inconclusive [inhibitor, partial curve] | –
